In the supplement of paper PMC8728848:
The other results are listed elsewhere or left out.

What was measured:
Assay in all cases: glycan array binding signal (z-score within array); higher = stronger binding
Conditions in all cases: glycan notation: IUPAC condensed, linker removed
[1] = molecular target: Fuc(a1-2)Gal6S(b1-3)GlcNAc6S
In short: (§1)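 Negative Z-scores can be read as non-binding. The Z-score is calculated within each array and then averaged across arrays of one protein sequence at different concentrations or buffers and across linkers. Arrays, 3228 in all, were curated from the Consortium for Functional Glycomics database and kept only where the protein sequence was available.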

[2] = molecular target: Fuc(a1-2)Gal6S(b1-4)Glc
In short: as §1

[3] = molecular target: Fuc(a1-2)Gal6S(b1-4)Glc6S
In short: as §1

[4] = molecular target: Fuc(a1-2)[Gal(a1-3)]Gal
In short: as §1

[5] = molecular target: Fuc(a1-2)[Gal(a1-3)]Gal(b1-3)GalNAc
In short: as §1

[6] = molecular target: Fuc(a1-2)[Gal(a1-3)]Gal(b1-3)GalNAc(b1-3)Gal(a1-4)Gal(b1-4)Glc
In short: as §1

[7] = molecular target: Fuc(a1-2)[Gal(a1-3)]Gal(b1-3)GlcNAc
In short: as §1

[8] = molecular target: Fuc(a1-2)[Gal(a1-3)]Gal(b1-3)GlcNAc(b1-2)Man(a1-3)[Fuc(a1-2)[Gal(a1-3)]Gal(b1-3)GlcNAc(b1-2)Man(a1-6)]Man(b1-4)GlcNAc(b1-4)GlcNAc
In short: as §1

[9] = molecular target: Fuc(a1-2)[Gal(a1-3)]Gal(b1-3)GlcNAc(b1-2)Man(a1-3)[Fuc(a1-2)[Gal(a1-3)]Gal(b1-3)GlcNAc(b1-2)Man(a1-6)]Man(b1-4)GlcNAc(b1-4)[Fuc(a1-6)]GlcNAc
In short: as §1

[10] = molecular target: Fuc(a1-2)[Gal(a1-3)]Gal(b1-3)GlcNAc(b1-3)GalNAc
In short: as §1

[11] = molecular target: Fuc(a1-2)[Gal(a1-3)]Gal(b1-3)GlcNAc(b1-6)GalNAc
In short: as §1

[12] = molecular target: Fuc(a1-2)[Gal(a1-3)]Gal(b1-4)Glc
In short: as §1

[13] = molecular target: Fuc(a1-2)[Gal(a1-3)]Gal(b1-4)GlcNAc
In short: as §1

[14] = molecular target: Fuc(a1-2)[Gal(a1-3)]Gal(b1-4)GlcNAc(b1-2)Man
In short: as §1

[15] = molecular target: Fuc(a1-2)[Gal(a1-3)]Gal(b1-4)GlcNAc(b1-2)Man(a1-3)[Fuc(a1-2)[Gal(a1-3)]Gal(b1-4)GlcNAc(b1-2)Man(a1-6)]Man(b1-4)GlcNAc(b1-4)GlcNAc
In short: as §1

[16] = molecular target: Fuc(a1-2)[Gal(a1-3)]Gal(b1-4)GlcNAc(b1-2)Man(a1-3)[Fuc(a1-2)[Gal(a1-3)]Gal(b1-4)GlcNAc(b1-2)Man(a1-6)]Man(b1-4)GlcNAc(b1-4)[Fuc(a1-6)]GlcNAc
In short: as §1

[17] = molecular target: Fuc(a1-2)[Gal(a1-3)]Gal(b1-4)GlcNAc(b1-3)GalNAc
In short: as §1

[18] = molecular target: Fuc(a1-2)[Gal(a1-3)]Gal(b1-4)GlcNAc(b1-3)[Fuc(a1-2)[Gal(a1-3)]Gal(b1-4)GlcNAc(b1-6)]GalNAc
In short: as §1

[19] = molecular target: Fuc(a1-2)[Gal(a1-3)]Gal(b1-4)GlcNAc(b1-6)GalNAc
In short: as §1

[20] = molecular target: Fuc(a1-2)[Gal(a1-3)]Gal(b1-4)[Fuc(a1-3)]Glc
In short: as §1

[21] = molecular target: Fuc(a1-2)[Gal(a1-3)]Gal(b1-4)[Fuc(a1-3)]GlcNAc
In short: as §1

[22] = molecular target: Fuc(a1-2)[Gal(a1-3)]Gal(b1-4)[Fuc(a1-3)]GlcNAc(b1-3)GalNAc
In short: as §1

[23] = molecular target: Fuc(a1-2)[Gal(a1-4)]Gal(b1-4)GlcNAc
In short: as §1

[24] = molecular target: Fuc(a1-2)[GalNAc(a1-3)]Gal
In short: as §1

[25] = molecular target: Fuc(a1-2)[GalNAc(a1-3)]Gal(b1-3)GalNAc(a1-3)[Fuc(a1-2)]Gal(b1-4)GlcNAc
In short: as §1

[26] = molecular target: Fuc(a1-2)[GalNAc(a1-3)]Gal(b1-3)GalNAc(b1-3)Gal(a1-4)Gal(b1-4)Glc
In short: as §1

[27] = molecular target: Fuc(a1-2)[GalNAc(a1-3)]Gal(b1-3)GlcNAc
In short: as §1

[28] = molecular target: Fuc(a1-2)[GalNAc(a1-3)]Gal(b1-3)GlcNAc(b1-2)Man(a1-3)[Fuc(a1-2)[GalNAc(a1-3)]Gal(b1-3)GlcNAc(b1-2)Man(a1-6)]Man(b1-4)GlcNAc(b1-4)GlcNAc
In short: as §1

[29] = molecular target: Fuc(a1-2)[GalNAc(a1-3)]Gal(b1-3)GlcNAc(b1-2)Man(a1-3)[Fuc(a1-2)[GalNAc(a1-3)]Gal(b1-3)GlcNAc(b1-2)Man(a1-6)]Man(b1-4)GlcNAc(b1-4)[Fuc(a1-6)]GlcNAc
In short: as §1

[30] = molecular target: Fuc(a1-2)[GalNAc(a1-3)]Gal(b1-3)GlcNAc(b1-3)GalNAc
In short: as §1

[31] = molecular target: Fuc(a1-2)[GalNAc(a1-3)]Gal(b1-3)GlcNAc(b1-6)GalNAc
In short: as §1

[32] = molecular target: Fuc(a1-2)[GalNAc(a1-3)]Gal(b1-4)Glc
In short: as §1

[33] = molecular target: Fuc(a1-2)[GalNAc(a1-3)]Gal(b1-4)GlcNAc
In short: as §1

[34] = molecular target: Fuc(a1-2)[GalNAc(a1-3)]Gal(b1-4)GlcNAc(b1-2)Man
In short: as §1

[35] = molecular target: Fuc(a1-2)[GalNAc(a1-3)]Gal(b1-4)GlcNAc(b1-2)Man(a1-3)[Fuc(a1-2)[GalNAc(a1-3)]Gal(b1-4)GlcNAc(b1-2)Man(a1-6)]Man(b1-4)GlcNAc(b1-4)GlcNAc
In short: as §1

[36] = molecular target: Fuc(a1-2)[GalNAc(a1-3)]Gal(b1-4)GlcNAc(b1-2)Man(a1-3)[Fuc(a1-2)[GalNAc(a1-3)]Gal(b1-4)GlcNAc(b1-2)Man(a1-6)]Man(b1-4)GlcNAc(b1-4)[Fuc(a1-6)]GlcNAc
In short: as §1

[37] = molecular target: Fuc(a1-2)[GalNAc(a1-3)]Gal(b1-4)GlcNAc(b1-3)Gal(b1-4)GlcNAc
In short: as §1

[38] = molecular target: Fuc(a1-2)[GalNAc(a1-3)]Gal(b1-4)GlcNAc(b1-3)Gal(b1-4)GlcNAc(b1-3)Gal(b1-4)GlcNAc
In short: as §1

[39] = molecular target: Fuc(a1-2)[GalNAc(a1-3)]Gal(b1-4)GlcNAc(b1-3)GalNAc
In short: as §1

[40] = molecular target: Fuc(a1-2)[GalNAc(a1-3)]Gal(b1-4)GlcNAc(b1-3)[Fuc(a1-2)[GalNAc(a1-3)]Gal(b1-4)GlcNAc(b1-6)]GalNAc
In short: as §1

[41] = molecular target: Fuc(a1-2)[GalNAc(a1-3)]Gal(b1-4)GlcNAc(b1-6)GalNAc
In short: as §1

[42] = molecular target: Fuc(a1-2)[GalNAc(a1-3)]Gal(b1-4)[Fuc(a1-3)]GlcNAc
In short: as §1

[43] = molecular target: Fuc(a1-2)[GalNAc(a1-3)]Gal(b1-4)[Fuc(a1-3)]GlcNAc(b1-3)GalNAc
In short: as §1

[44] = molecular target: Fuc(a1-2)[GalNAc(a1-4)]Gal(b1-4)GlcNAc
In short: as §1

[45] = molecular target: Fuc(a1-2)[GalNAc(b1-3)]Gal
In short: as §1

B1: PV12658A-bvu-496-32-496 (Bacteroides vulgatus) (protein)
chain: DLDGAITTPAAVELALNGIYYSLPGNGFNVIFPTVSGSFKAGTMWRQEIVSAGNAVYYSERMLPTLSFSDATEWDADYAVIKNANFLETACNRMSDGEFSGNRRAEVLGEIAYLRALAYFNILVRYCEFWDMNSEYGVVMRNEAPSVSNALKARSSVADSYQYILDQLEIAIEKAPDWKKLSQASKEAAKALKARVLLYAGKYTEAVAAVNDAIDTNSPLPEANYGDVFDKFSTTKEILFARVFDQKDATNTSTRQQCYGNSPTKKQGYWGPTNEYVELVGDDPRADAIFSKVDSLMDSRSSAVAYNLKSVKKLLNDANDMPVIFSRVSELYLIKAEALYRSGASISEAYAPIRKLRERAGAEIILPANNEELETAIFNEWMLELSFENWHEWFAMIRFAGYTEKPDFTRLLALNKTLREALEKEYEKSEAQGDNYYQRIIDRRIDAIPSSEISSNLECKQNPGY
Which results are given for B1?
glycan array binding signal (z-score) [1]: -0.43; glycan array binding signal (z-score) [2]: -0.511; glycan array binding signal (z-score) [3]: -0.19; glycan array binding signal (z-score) [4]: -0.157; glycan array binding signal (z-score) [5]: 0.035; glycan array binding signal (z-score) [6]: -0.174; glycan array binding signal (z-score) [7]: -0.399; glycan array binding signal (z-score) [8]: 3.63; glycan array binding signal (z-score) [9]: -0.045; glycan array binding signal (z-score) [10]: -0.111; glycan array binding signal (z-score) [11]: 0.31; glycan array binding signal (z-score) [12]: -0.462; glycan array binding signal (z-score) [13]: -0.33; glycan array binding signal (z-score) [14]: 0.617; glycan array binding signal (z-score) [15]: 0.026; glycan array binding signal (z-score) [16]: 0.251; glycan array binding signal (z-score) [17]: -0.538; glycan array binding signal (z-score) [18]: -0.18; glycan array binding signal (z-score) [19]: -0.283; glycan array binding signal (z-score) [20]: -0.444; glycan array binding signal (z-score) [21]: -0.298; glycan array binding signal (z-score) [22]: -0.157; glycan array binding signal (z-score) [23]: 0.379; glycan array binding signal (z-score) [24]: -0.151; glycan array binding signal (z-score) [25]: -0.427; glycan array binding signal (z-score) [26]: -0.135; glycan array binding signal (z-score) [27]: -0.302; glycan array binding signal (z-score) [28]: -0.298; glycan array binding signal (z-score) [29]: -0.342; glycan array binding signal (z-score) [30]: -0.535; glycan array binding signal (z-score) [31]: -0.182; glycan array binding signal (z-score) [32]: -0.356; glycan array binding signal (z-score) [33]: -0.36; glycan array binding signal (z-score) [34]: -0.056; glycan array binding signal (z-score) [35]: -0.375; glycan array binding signal (z-score) [36]: -0.215; glycan array binding signal (z-score) [37]: 0.044; glycan array binding signal (z-score) [38]: 0.133; glycan array binding signal (z-score) [39]: -0.285; glycan array binding signal (z-score) [40]: -0.356; glycan array binding signal (z-score) [41]: -0.523; glycan array binding signal (z-score) [42]: -0.318; glycan array binding signal (z-score) [43]: 0.014; glycan array binding signal (z-score) [44]: 0.577; glycan array binding signal (z-score) [45]: 0.193
